# In the supplement of paper PMC8728848:
# This is one part of the list.
# B1: Epa23 (Candida glabrata) (protein)
# chain: MGSSHHHHHHSSGLVPRGSHMIPNPFEGTINNFPSGCSPNHGLYNRGLTMELYNYSYIHPQSIQSYFNTSTLKKMEKGQCWDPSYLDVNYPRTGYKTHNRFAKVNGIDGILDFEFNPTRSCVPSKGQLPQNYNYPLQFTLSNFTMLLYGYFKPKVTAKHTFTIFADDLLFLNFGAGNAFDCCQQQDTIDDFGNYQAYALWGSDTQQNTLTVNLDANIYYPIRMFYNNRDFKGALNMYFTTDESNTKINDFSGYLFNIPDSSEGCPAHISYETECGNVSG
# Key:
# Assay in all cases: glycan array binding signal (z-score within array); higher = stronger binding
# Details in all cases: glycan notation: IUPAC condensed, linker removed
# [1] = target: GlcNAc(a1-3)Gal(b1-4)GlcNAc
# Method in brief: (§1)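 Negative Z-scores can be read as non-binding. The Z-score is calculated within each array and then averaged across arrays of one protein sequence at different concentrations or buffers and across linkers. Arrays, 3228 in all, were curated from the Consortium for Functional Glycomics database and kept only where the protein sequence was available.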
# [2] = target: GlcNAc(a1-4)Gal(b1-3)GlcNAc
# Method in brief: as §1
# [3] = target: GlcNAc(a1-4)Gal(b1-4)GalNAc
# Method in brief: as §1
# [4] = target: GlcNAc(a1-4)Gal(b1-4)GlcNAc
# Method in brief: as §1
# [5] = target: GlcNAc(a1-4)Gal(b1-4)GlcNAc(b1-3)Gal(b1-4)Glc
# Method in brief: as §1
# [6] = target: GlcNAc(a1-4)Gal(b1-4)GlcNAc(b1-3)Gal(b1-4)GlcNAc
# Method in brief: as §1
# [7] = target: GlcNAc(a1-4)Gal(b1-4)GlcNAc(b1-3)Gal(b1-4)GlcNAc(b1-3)Gal(b1-4)GlcNAc
# Method in brief: as §1
# [8] = target: GlcNAc(a1-4)Gal(b1-4)GlcNAc(b1-3)Gal(b1-4)[Fuc(a1-3)]GlcNAc(b1-3)Gal(b1-4)[Fuc(a1-3)]GlcNAc
# Method in brief: as §1
# [9] = target: GlcNAc(a1-6)Gal(b1-4)GlcNAc
# Method in brief: as §1
# [10] = target: GlcNAc(b1-2)Gal(b1-3)GalNAc
# Method in brief: as §1
# [11] = target: GlcNAc(b1-2)Man(a1-3)[GlcNAc(b1-2)Man(a1-6)]Man(b1-4)GlcNAc(b1-4)GlcNAc
# Method in brief: as §1
# [12] = target: GlcNAc(b1-2)Man(a1-3)[GlcNAc(b1-2)Man(a1-6)]Man(b1-4)GlcNAc(b1-4)[Fuc(a1-6)]GlcNAc
# Method in brief: as §1
# [13] = target: GlcNAc(b1-2)Man(a1-3)[GlcNAc(b1-4)][GlcNAc(b1-2)Man(a1-6)]Man(b1-4)GlcNAc(b1-4)GlcNAc
# Method in brief: as §1
# [14] = target: GlcNAc(b1-2)Man(a1-3)[GlcNAc(b1-4)][GlcNAc(b1-2)Man(a1-6)]Man(b1-4)GlcNAc(b1-4)[Fuc(a1-6)]GlcNAc
# Method in brief: as §1
# [15] = target: GlcNAc(b1-2)[GlcNAc(b1-4)]Man(a1-3)[GlcNAc(b1-2)Man(a1-6)]Man(b1-4)GlcNAc(b1-4)GlcNAc
# Method in brief: as §1
# [16] = target: GlcNAc(b1-2)[GlcNAc(b1-4)]Man(a1-3)[GlcNAc(b1-4)][GlcNAc(b1-2)Man(a1-6)]Man(b1-4)GlcNAc(b1-4)GlcNAc
# Method in brief: as §1
# [17] = target: GlcNAc(b1-2)[GlcNAc(b1-4)]Man(a1-3)[GlcNAc(b1-4)][GlcNAc(b1-2)[GlcNAc(b1-6)]Man(a1-6)]Man(b1-4)GlcNAc(b1-4)GlcNAc
# Method in brief: as §1
# [18] = target: GlcNAc(b1-2)[GlcNAc(b1-4)]Man(a1-3)[GlcNAc(b1-4)][GlcNAc(b1-2)[GlcNAc(b1-6)]Man(a1-6)]Man(b1-4)GlcNAc(b1-4)[Fuc(a1-6)]GlcNAc
# Method in brief: as §1
# [19] = target: GlcNAc(b1-2)[GlcNAc(b1-6)]Man(a1-6)[GlcNAc(b1-2)Man(a1-3)]Man(b1-4)GlcNAc(b1-4)GlcNAc
# Method in brief: as §1
# [20] = target: GlcNAc(b1-2)[GlcNAc(b1-6)]Man(a1-6)[GlcNAc(b1-2)Man(a1-3)]Man(b1-4)GlcNAc(b1-4)[Fuc(a1-6)]GlcNAc
# Method in brief: as §1
# [21] = target: GlcNAc(b1-2)[GlcNAc(b1-6)]Man(a1-6)[GlcNAc(b1-4)][GlcNAc(b1-2)Man(a1-3)]Man(b1-4)GlcNAc(b1-4)GlcNAc
# Method in brief: as §1
# GlcNAc(b1-3)Fuc = target: GlcNAc(b1-3)Fuc
# Method in brief: as §1
# GlcNAc(b1-3)Gal = target: GlcNAc(b1-3)Gal
# Method in brief: as §1
# [22] = target: GlcNAc(b1-3)Gal(b1-3)GalNAc
# Method in brief: as §1
# GlcNAc(b1-3)Gal(b1-4)Glc = target: GlcNAc(b1-3)Gal(b1-4)Glc
# Method in brief: as §1
# [23] = target: GlcNAc(b1-3)Gal(b1-4)GlcNAc
# Method in brief: as §1
# [24] = target: GlcNAc(b1-3)Gal(b1-4)GlcNAc(b1-2)Man(a1-3)[GlcNAc(b1-3)Gal(b1-4)GlcNAc(b1-2)Man(a1-6)]Man(b1-4)GlcNAc(b1-4)GlcNAc
# Method in brief: as §1
# [25] = target: GlcNAc(b1-3)Gal(b1-4)GlcNAc(b1-2)Man(a1-3)[GlcNAc(b1-3)Gal(b1-4)GlcNAc(b1-2)Man(a1-6)]Man(b1-4)GlcNAc(b1-4)[Fuc(a1-6)]GlcNAc
# Method in brief: as §1
# [26] = target: GlcNAc(b1-3)Gal(b1-4)GlcNAc(b1-2)[GlcNAc(b1-3)Gal(b1-4)GlcNAc(b1-6)]Man(a1-6)[GlcNAc(b1-3)Gal(b1-4)GlcNAc(b1-2)Man(a1-3)]Man(b1-4)GlcNAc(b1-4)GlcNAc
# Method in brief: as §1
# [27] = target: GlcNAc(b1-3)Gal(b1-4)GlcNAc(b1-3)Gal(b1-4)GlcNAc
# Method in brief: as §1
# [28] = target: GlcNAc(b1-3)Gal(b1-4)GlcNAc(b1-3)Gal(b1-4)GlcNAc(b1-2)Man(a1-3)[GlcNAc(b1-3)Gal(b1-4)GlcNAc(b1-3)Gal(b1-4)GlcNAc(b1-2)Man(a1-6)]Man(b1-4)GlcNAc(b1-4)GlcNAc
# Method in brief: as §1
# [29] = target: GlcNAc(b1-3)Gal(b1-4)GlcNAc(b1-3)Gal(b1-4)GlcNAc(b1-2)Man(a1-3)[GlcNAc(b1-3)Gal(b1-4)GlcNAc(b1-3)Gal(b1-4)GlcNAc(b1-2)Man(a1-6)]Man(b1-4)GlcNAc(b1-4)[Fuc(a1-6)]GlcNAc
# Method in brief: as §1
# [30] = target: GlcNAc(b1-3)Gal(b1-4)GlcNAc(b1-3)Gal(b1-4)GlcNAc(b1-2)[GlcNAc(b1-3)Gal(b1-4)GlcNAc(b1-3)Gal(b1-4)GlcNAc(b1-6)]Man(a1-6)[GlcNAc(b1-3)Gal(b1-4)GlcNAc(b1-3)Gal(b1-4)GlcNAc(b1-2)Man(a1-3)]Man(b1-4)GlcNAc(b1-4)[Fuc(a1-6)]GlcNAc
# Method in brief: as §1
# [31] = target: GlcNAc(b1-3)Gal(b1-4)GlcNAc(b1-3)Gal(b1-4)GlcNAc(b1-3)Gal(b1-4)GlcNAc(b1-2)Man(a1-3)[GlcNAc(b1-3)Gal(b1-4)GlcNAc(b1-3)Gal(b1-4)GlcNAc(b1-3)Gal(b1-4)GlcNAc(b1-2)Man(a1-6)]Man(b1-4)GlcNAc(b1-4)GlcNAc
# Method in brief: as §1
# [32] = target: GlcNAc(b1-3)Gal(b1-4)GlcNAc(b1-3)Gal(b1-4)GlcNAc(b1-3)Gal(b1-4)GlcNAc(b1-2)Man(a1-3)[GlcNAc(b1-3)Gal(b1-4)GlcNAc(b1-3)Gal(b1-4)GlcNAc(b1-3)Gal(b1-4)GlcNAc(b1-2)Man(a1-6)]Man(b1-4)GlcNAc(b1-4)[Fuc(a1-6)]GlcNAc
# Method in brief: as §1
# [33] = target: GlcNAc(b1-3)Gal(b1-4)GlcNAc(b1-3)Gal(b1-4)GlcNAc(b1-3)Gal(b1-4)GlcNAc(b1-2)[GlcNAc(b1-3)Gal(b1-4)GlcNAc(b1-3)Gal(b1-4)GlcNAc(b1-3)Gal(b1-4)GlcNAc(b1-6)]Man(a1-6)[GlcNAc(b1-3)Gal(b1-4)GlcNAc(b1-3)Gal(b1-4)GlcNAc(b1-3)Gal(b1-4)GlcNAc(b1-2)Man(a1-3)]Man(b1-4)GlcNAc(b1-4)[Fuc(a1-6)]GlcNAc
# Method in brief: as §1
# [34] = target: GlcNAc(b1-3)Gal(b1-4)GlcNAc(b1-3)Gal(b1-4)GlcNAc(b1-3)Gal(b1-4)GlcNAc(b1-3)Gal(b1-4)GlcNAc(b1-2)Man(a1-3)[GlcNAc(b1-3)Gal(b1-4)GlcNAc(b1-3)Gal(b1-4)GlcNAc(b1-3)Gal(b1-4)GlcNAc(b1-3)Gal(b1-4)GlcNAc(b1-2)Man(a1-6)]Man(b1-4)GlcNAc(b1-4)GlcNAc
# Method in brief: as §1
# [35] = target: GlcNAc(b1-3)Gal(b1-4)GlcNAc(b1-3)Gal(b1-4)GlcNAc(b1-3)Gal(b1-4)GlcNAc(b1-3)Gal(b1-4)GlcNAc(b1-2)Man(a1-3)[GlcNAc(b1-3)Gal(b1-4)GlcNAc(b1-3)Gal(b1-4)GlcNAc(b1-3)Gal(b1-4)GlcNAc(b1-3)Gal(b1-4)GlcNAc(b1-2)Man(a1-6)]Man(b1-4)GlcNAc(b1-4)[Fuc(a1-6)]GlcNAc
# Method in brief: as §1
binder,measurement,setting,value
B1,glycan array binding signal (z-score),[1],-0.22
same,glycan array binding signal (z-score),[2],-0.263
same,glycan array binding signal (z-score),[3],-0.164
same,glycan array binding signal (z-score),[4],-0.235
same,glycan array binding signal (z-score),[5],-0.241
same,glycan array binding signal (z-score),[6],-0.127
same,glycan array binding signal (z-score),[7],-0.257
same,glycan array binding signal (z-score),[8],-0.08
same,glycan array binding signal (z-score),[9],0.812
same,glycan array binding signal (z-score),[10],-0.243
same,glycan array binding signal (z-score),[11],-0.245
same,glycan array binding signal (z-score),[12],-0.234
same,glycan array binding signal (z-score),[13],-0.208
same,glycan array binding signal (z-score),[14],-0.283
same,glycan array binding signal (z-score),[15],-0.21
same,glycan array binding signal (z-score),[16],-0.119
same,glycan array binding signal (z-score),[17],-0.258
same,glycan array binding signal (z-score),[18],-0.14
same,glycan array binding signal (z-score),[19],-0.187
same,glycan array binding signal (z-score),[20],-0.233
same,glycan array binding signal (z-score),[21],-0.185
same,glycan array binding signal (z-score),GlcNAc(b1-3)Fuc,-0.214
same,glycan array binding signal (z-score),GlcNAc(b1-3)Gal,-0.272
same,glycan array binding signal (z-score),[22],-0.149
same,glycan array binding signal (z-score),GlcNAc(b1-3)Gal(b1-4)Glc,-0.101
same,glycan array binding signal (z-score),[23],-0.198
same,glycan array binding signal (z-score),[24],-0.24
same,glycan array binding signal (z-score),[25],-0.199
same,glycan array binding signal (z-score),[26],-0.14
same,glycan array binding signal (z-score),[27],-0.193
same,glycan array binding signal (z-score),[28],-0.159
same,glycan array binding signal (z-score),[29],-0.176
same,glycan array binding signal (z-score),[30],-0.093
same,glycan array binding signal (z-score),[31],-0.203
same,glycan array binding signal (z-score),[32],-0.184
same,glycan array binding signal (z-score),[33],-0.144
same,glycan array binding signal (z-score),[34],-0.247
same,glycan array binding signal (z-score),[35],-0.038
